Measurements: the BET-seq Pho4 binding data (Le et al. 2018)
Some of the results follow. These are noisy estimates, calculated here from bound and input reads.

Target: T1, Pho4 (S. cerevisiae) (UniProt P07270)
T1 sequence: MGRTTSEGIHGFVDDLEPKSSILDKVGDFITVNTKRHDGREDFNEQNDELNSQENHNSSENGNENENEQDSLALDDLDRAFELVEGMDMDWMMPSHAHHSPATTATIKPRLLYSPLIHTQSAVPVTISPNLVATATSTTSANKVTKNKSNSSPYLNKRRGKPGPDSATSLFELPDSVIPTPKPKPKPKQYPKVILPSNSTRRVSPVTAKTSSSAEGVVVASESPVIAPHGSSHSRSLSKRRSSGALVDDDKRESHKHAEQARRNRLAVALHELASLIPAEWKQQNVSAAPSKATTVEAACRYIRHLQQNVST
Experiment: relative binding free energy (BET-seq); higher = weaker binding
Conditions: reference: library average

Sequence | relative binding free energy
AAATGCACGTGTAGGA | 0.07 kcal/mol
TGTGTCACGTGGCAGA | -0.03 kcal/mol
ATATGCACGTGTAAGT | 0.11 kcal/mol
TAGGGCACGTGAGATA | 0.09 kcal/mol
TTATGCACGTGGATAT | -0.06 kcal/mol
TTGTTCACGTGACGGA | 0.34 kcal/mol
TTATTCACGTGTTAGT | 0.37 kcal/mol
TCCGTCACGTGTTGTA | 0.04 kcal/mol
GGCGGCACGTGGTTCT | 0.01 kcal/mol
TGCTGCACGTGTTGGC | 0.02 kcal/mol
ATATTCACGTGAGAAT | 0.3 kcal/mol
TAGTCCACGTGTGGCT | 0.1 kcal/mol
TTAGCCACGTGTAATT | 0.08 kcal/mol
CTTTGCACGTGTGATA | -0.01 kcal/mol
TTTTTCACGTGGGAGC | 0.29 kcal/mol
TTTCCCACGTGGGGGT | -0.15 kcal/mol
TGTTGCACGTGTGCAC | 0.01 kcal/mol
ATGTTCACGTGATGTG | 0.33 kcal/mol
GATAACACGTGTGTGG | 0.04 kcal/mol
TTTTGCACGTGTCAAT | 0.01 kcal/mol
CTTTTCACGTGGAGAT | 0.29 kcal/mol
GTTATCACGTGGGGCC | 0.18 kcal/mol
TTAAGCACGTGAATAT | 0.12 kcal/mol
GTTGTCACGTGCATGG | 0.01 kcal/mol
GCTGGCACGTGTAATT | 0.17 kcal/mol
ACTGTCACGTGTCGGT | 0.01 kcal/mol

Sequence | relative binding free energy
AATTGCACGTGTTTGA | 0.06 kcal/mol
CTGATCACGTGTATGT | 0.03 kcal/mol
GTATGCACGTGAAATG | 0.27 kcal/mol
ATGGGCACGTGCGAGT | -0.3 kcal/mol
TACGGCACGTGTTGCT | -0.04 kcal/mol
TATTTCACGTGTCTCG | 0.34 kcal/mol
TAAGGCACGTGGAAGT | -0.08 kcal/mol
AGGTTCACGTGAAATG | 0.44 kcal/mol
GATGGCACGTGTGAGT | -0.09 kcal/mol
GTTGTCACGTGCCGTG | 0.19 kcal/mol
GCGGTCACGTGGTAGA | 0.11 kcal/mol
TTCGTCACGTGCGGAG | 0.14 kcal/mol
TGGATCACGTGCAGGT | 0.1 kcal/mol
AGTGACACGTGTTGGA | 0.02 kcal/mol
TTGGTCACGTGAAATA | 0.35 kcal/mol
AGAATCACGTGGCAGG | 0.18 kcal/mol
TATTTCACGTGGGTTG | 0.23 kcal/mol
GGGTGCACGTGGACGT | -0.02 kcal/mol
GTGCTCACGTGTTAAG | 0.24 kcal/mol
CCTGGCACGTGGAGTA | -0.03 kcal/mol
CGTGACACGTGAGGGG | 0.18 kcal/mol
TGTGGCACGTGTGTGA | -0.04 kcal/mol
GGAATCACGTGGGCTT | 0.08 kcal/mol
TAGGACACGTGGGGAA | -0.15 kcal/mol
TTAGTCACGTGTCCTT | 0.22 kcal/mol
AACGGCACGTGTATGG | -0.02 kcal/mol

Sequence | relative binding free energy
TATCACACGTGTGTGT | 0.01 kcal/mol
CAAATCACGTGGGTTG | -0.02 kcal/mol
GTTTACACGTGATGAA | 0.49 kcal/mol
AGCATCACGTGGGATT | 0.11 kcal/mol
TGATACACGTGTAATG | 0 kcal/mol
GTCTGCACGTGTCAGG | 0.18 kcal/mol
ATGGTCACGTGTATCG | 0.23 kcal/mol
GGAGGCACGTGTAAGA | -0.04 kcal/mol
GATGGCACGTGTAAGT | 0.15 kcal/mol
GTGGACACGTGGTATA | 0.08 kcal/mol
ATGGTCACGTGAGGCT | 0.26 kcal/mol
ATATGCACGTGCAGTT | -0.09 kcal/mol
AGTGGCACGTGTAGTA | -0.18 kcal/mol
GTGGCCACGTGCGAGG | -0.03 kcal/mol
GTTTACACGTGTTAGC | 0.22 kcal/mol
TTATTCACGTGTAGAT | 0.47 kcal/mol
TTCATCACGTGAAGGA | 0.4 kcal/mol
TGTGACACGTGGCCGG | -0.1 kcal/mol
TGTGCCACGTGTCGTT | -0.03 kcal/mol
ATGCGCACGTGAAGTT | 0.13 kcal/mol
TGTTGCACGTGTTCTT | 0.09 kcal/mol
CGAGGCACGTGTTTGT | -0.16 kcal/mol
GCGTTCACGTGTGTTA | 0.28 kcal/mol
TGGGTCACGTGGCCCG | 0.02 kcal/mol
GTGGGCACGTGACCGT | 0.07 kcal/mol
GAAGTCACGTGGGTCA | 0.03 kcal/mol

Sequence | relative binding free energy
TAGTACACGTGTACGG | 0.09 kcal/mol
GGTGACACGTGCATGT | 0.15 kcal/mol
CGGGACACGTGGTCGG | -0.13 kcal/mol
TTAAACACGTGGAGAG | 0.01 kcal/mol
ACGGTCACGTGTCGTG | 0.07 kcal/mol
AGGGGCACGTGGATTA | -0.11 kcal/mol
TTGGGCACGTGCGGTC | -0.19 kcal/mol
GGAGTCACGTGGGTGG | 0.04 kcal/mol
TATGGCACGTGGGACA | -0.24 kcal/mol
TAGCTCACGTGTTGAG | 0.2 kcal/mol
AAGCGCACGTGTGGTT | -0.1 kcal/mol
CCAATCACGTGGGGTG | 0.06 kcal/mol
TCGGGCACGTGGTGCA | -0.2 kcal/mol
ATCGTCACGTGTCGTA | 0.2 kcal/mol
CTGGTCACGTGTGCGC | 0.22 kcal/mol
TGTTACACGTGGTTTG | 0.1 kcal/mol
CCTGTCACGTGTTTGG | 0.01 kcal/mol
CGGGGCACGTGGGGGG | -0.26 kcal/mol
GATTGCACGTGGAGTG | 0.14 kcal/mol
CGGCGCACGTGTGGTT | -0.01 kcal/mol
GGGTGCACGTGCGTTT | -0.05 kcal/mol
TTATGCACGTGGTCGC | -0.14 kcal/mol
GATTTCACGTGTGTGC | 0.24 kcal/mol
TCTGACACGTGGTTGG | 0.01 kcal/mol
CGCGGCACGTGGGGTT | -0.26 kcal/mol
TTGGACACGTGTAGGT | 0.01 kcal/mol

Sequence | relative binding free energy
TTAGACACGTGGTGGG | 0.02 kcal/mol
GAGTACACGTGTTGGA | 0.19 kcal/mol
AGGTTCACGTGATGTT | 0.32 kcal/mol
CTTCGCACGTGTGTTT | -0.06 kcal/mol
CGAATCACGTGGTTGG | 0.15 kcal/mol
GTGAGCACGTGAATAT | 0.27 kcal/mol
ATTATCACGTGTGGGA | 0.13 kcal/mol
TTTTACACGTGAGTTG | 0.33 kcal/mol
AGGTTCACGTGCGGCG | 0.19 kcal/mol
TTCGTCACGTGATGCA | 0.25 kcal/mol
TTGTCCACGTGAGTGT | 0.16 kcal/mol
TGGTGCACGTGGGTTC | -0.08 kcal/mol
TTGATCACGTGACAGG | 0.28 kcal/mol
TGGTTCACGTGTGCTG | 0.26 kcal/mol
CGTCACACGTGGTTGT | -0.06 kcal/mol
GTCATCACGTGCGGGT | -0.03 kcal/mol
TAGGGCACGTGATTTG | -0.02 kcal/mol
TGCAGCACGTGGGGAG | -0.18 kcal/mol
TCGGGCACGTGTCTTG | -0.1 kcal/mol
GGTATCACGTGAGTTG | 0.44 kcal/mol
AGGTTCACGTGAAGGA | 0.26 kcal/mol
AGCTTCACGTGTGTGT | 0.17 kcal/mol
TGAAGCACGTGTTTCG | -0.1 kcal/mol
TTGCACACGTGTTTGT | 0.06 kcal/mol
GCGTGCACGTGATGAG | 0.02 kcal/mol
GTAGCCACGTGGCATG | -0.04 kcal/mol

Sequence | relative binding free energy
CGGGGCACGTGTAAGG | -0.05 kcal/mol
TTTGTCACGTGATTCG | 0.29 kcal/mol
CCGGGCACGTGTGGGA | -0.11 kcal/mol
AGGCGCACGTGGAGTA | -0.1 kcal/mol
TTTGTCACGTGGATGT | 0.13 kcal/mol
TAGGGCACGTGAGCGC | 0.21 kcal/mol
ATTTGCACGTGCGGAT | -0.01 kcal/mol
CTGGACACGTGGGGGG | 0.03 kcal/mol
CGGGTCACGTGATGTT | 0.37 kcal/mol
TGTTACACGTGGGGGT | -0.06 kcal/mol
CTGGGCACGTGGTCTT | -0.18 kcal/mol
ATGGGCACGTGGGGAA | -0.19 kcal/mol
ACTTTCACGTGTTGGG | 0.29 kcal/mol
AGGGTCACGTGTGTGC | 0.17 kcal/mol
AGAGCCACGTGGTCGG | -0.21 kcal/mol
ATATCCACGTGGTGGT | -0.09 kcal/mol
ATTTGCACGTGTTCAG | -0.14 kcal/mol
TGAGGCACGTGCTTGT | -0.2 kcal/mol
ATAGTCACGTGGGTCG | 0.02 kcal/mol
AAGTGCACGTGATTTG | 0.05 kcal/mol
TTCATCACGTGTATAG | 0.15 kcal/mol
CGTGGCACGTGTTTTG | -0.13 kcal/mol
AAGGTCACGTGTCAGG | 0.26 kcal/mol
GGGGCCACGTGGGCGA | -0.17 kcal/mol
TTCTCCACGTGGTTTG | 0 kcal/mol
CGGTACACGTGTAGGT | 0.12 kcal/mol

Sequence | relative binding free energy
CGGGGCACGTGGGAGG | -0.16 kcal/mol
ATGGACACGTGATTTA | 0.1 kcal/mol
ATAAACACGTGTATTT | 0.04 kcal/mol
TCAGTCACGTGAGATG | 0.21 kcal/mol
CAGGACACGTGGTGGT | 0 kcal/mol
AGTAGCACGTGTGCAT | -0.05 kcal/mol
GTAAGCACGTGGTAAT | -0.07 kcal/mol
GGGGGCACGTGAACCT | 0.23 kcal/mol
TGTGTCACGTGTGTGG | 0.14 kcal/mol
TTGTGCACGTGAGTTG | 0.25 kcal/mol
AGTGTCACGTGAATTA | 0.11 kcal/mol
TGGTACACGTGACGAG | 0.21 kcal/mol
TTTAGCACGTGGGACG | -0.33 kcal/mol
CGAGACACGTGTTGGG | -0.05 kcal/mol
ATAGTCACGTGCAGTT | -0.12 kcal/mol
CTGTGCACGTGTATGT | -0.08 kcal/mol
GACGTCACGTGATATG | 0.41 kcal/mol
ATATGCACGTGGGTCG | -0.21 kcal/mol
GTATCCACGTGGGGGT | -0.15 kcal/mol
TGGTGCACGTGTCCTG | -0.04 kcal/mol
AGCGTCACGTGCGGTA | -0.08 kcal/mol
AGGGACACGTGAGTAG | 0.18 kcal/mol
GTTAGCACGTGGCCGG | -0.07 kcal/mol
CAGCGCACGTGTGGGT | -0.06 kcal/mol
TTGGGCACGTGAGGAC | 0.06 kcal/mol
ATTTGCACGTGAGCAG | 0.23 kcal/mol

Sequence | relative binding free energy
TATTACACGTGAAATT | 0.33 kcal/mol
CGTAACACGTGTGCGG | -0.04 kcal/mol
GGTGTCACGTGTTTCG | 0.2 kcal/mol
GTGGACACGTGGCTTA | -0.08 kcal/mol
TGTAGCACGTGCGGAT | 0.05 kcal/mol
TATATCACGTGGGGCC | 0.15 kcal/mol
GCTAACACGTGGGGAG | -0.01 kcal/mol
TAATCCACGTGATTGT | 0.22 kcal/mol
TAGTTCACGTGCGATT | 0.24 kcal/mol
GGGTTCACGTGCTGGC | 0.25 kcal/mol
GTTCACACGTGGGTGA | -0.1 kcal/mol
AAGGGCACGTGTAGCG | -0.16 kcal/mol
AGGATCACGTGAGTAT | 0.31 kcal/mol
CAAATCACGTGTGAGT | 0.34 kcal/mol
TGGGGCACGTGGTGCA | -0.28 kcal/mol
TGAAGCACGTGGGATG | -0.14 kcal/mol
ATTGTCACGTGTCGAT | 0.03 kcal/mol
TGGTACACGTGTTGAT | 0.08 kcal/mol
TAATTCACGTGGAGAG | 0.31 kcal/mol
CAAGTCACGTGTGGCT | 0.13 kcal/mol
TATGCCACGTGGGGAT | -0.17 kcal/mol
TGGCACACGTGCGGTG | -0.07 kcal/mol
TATACCACGTGGTGTT | -0.3 kcal/mol
TGTGGCACGTGCTATA | -0.24 kcal/mol
TGGGTCACGTGCGACT | 0.17 kcal/mol
CGGGACACGTGGTGAT | 0.05 kcal/mol

Sequence | relative binding free energy
AGAGGCACGTGAGGGG | 0.11 kcal/mol
TGATACACGTGTTACG | 0.17 kcal/mol
ATGATCACGTGCTTTT | 0.11 kcal/mol
AGCAGCACGTGAGTTG | 0.07 kcal/mol
AAGTACACGTGGGCGT | 0.02 kcal/mol
TGTTGCACGTGTGGAG | 0.06 kcal/mol
GGTTGCACGTGGGATG | -0.06 kcal/mol
GGGATCACGTGCGGCT | 0.1 kcal/mol
TTTTTCACGTGTGAAA | 0.35 kcal/mol
GAACTCACGTGGTTGT | 0.24 kcal/mol
AGACTCACGTGGAGGG | 0.19 kcal/mol
TGCTGCACGTGGAGGG | -0.11 kcal/mol
GATAGCACGTGAGGTG | 0.1 kcal/mol
TTTGTCACGTGTTGCT | 0.13 kcal/mol
GAGTTCACGTGGACGG | 0.31 kcal/mol
TTATGCACGTGGTCAA | -0.07 kcal/mol
AGATGCACGTGGCGTG | -0.2 kcal/mol
GTGTACACGTGAGTGC | 0.17 kcal/mol
ATTGCCACGTGTGTAT | -0.2 kcal/mol
GATTGCACGTGTCGGG | 0.03 kcal/mol
GTGAGCACGTGCTTGT | -0.14 kcal/mol
AGGTTCACGTGGCGGT | 0.17 kcal/mol
